# Experimental data as given in the supplement of paper PMC3334620.
# Whole data set: some 33,000 sequences, median “E-score (-0.5 to 0.5)” near -0.016, cut for the highest 2% near 0.31. The list shows a part of the results.
# Target: Cst6 (UniProt P40535)
# Experiment: PBM E-score (8-mer binding enrichment) (E-score (-0.5 to 0.5)); higher = stronger / more preferred TF binding; most listed sequences are background and not binding sites
# Conditions: protein concentration: 200 nM; construct: GST-DNA-binding domain
# How it was run: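 E-scores (a modified Wilcoxon-Mann-Whitney statistic) were assigned by the Universal PBM Analysis Suite to every ungapped eight-base word pooled with its reverse complement. The input came from universal all-10-mer Agilent arrays made double-stranded by primer extension and probed with GST-tagged yeast transcription factors at about 100-200 nM. Fluorescent anti-GST detected bound protein, and masliner normalised the scans.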
row,Sequence,PBM E-score
1,GTGCGCAC,0.0822
2,AATGACAT,0.422
3,TAAAGTAA,0.172
4,ACCTCAAG,-0.113
5,CATTGAAC,0.0189
6,CTTGACCC,-0.183
7,AGATCAGG,-0.196
8,GTTCTATA,0.0397
9,CTTCATGC,-0.113
10,AGCGTCAC,0.332
11,GGTTTGGA,0.042
12,CATATTAA,0.234
13,ACAGCCGG,-0.00077
14,ACCAAGCA,-0.00668
15,AGTTATGC,0.045
16,ACCGCCTA,-0.115
17,ACAGCACC,-0.0342
18,CCATTTTC,0.2
19,AAGCTCGA,-0.00705
20,ACTGTTAC,0.0792
21,CAGTGAAA,0.15
22,ATGTCTGA,0.0205
23,ATGTCGTG,0.0262
24,AGTTATAA,0.137
25,CTAATTCA,0.0754

row,Sequence,PBM E-score
1,CGCATGTA,-0.0587
2,CGTACAAG,0.0819
3,AGGAGAAC,-0.157
4,CGTTGTAC,0.0365
5,ATGGAGTA,-0.0489
6,ATCCAGCA,-0.0228
7,CCGCATAC,0.103
8,GGTCAGCA,-0.0601
9,GCGTATAC,0.104
10,CAACGTCG,0.0638
11,GACGCGGA,0.0322
12,ATGTGCTC,-0.0603
13,ATCCCATG,-0.0123
14,ATACACTC,0.151
15,CTCAAGGC,-0.122
16,GTGAGGGA,-0.156
17,TAAGCACA,0.2
18,GTCCTCAA,0.00181
19,AATTCTGA,0.173
20,CGGGTCCC,-0.401
21,ATTCAAGA,-0.0345
22,GACGAACA,0.145
23,CAAAAGGA,0.076
24,CGCACATA,-0.12
25,AGAGAGCT,-0.224

row,Sequence,PBM E-score
1,CCAGGCCG,-0.0795
2,AGTTGGGG,-0.144
3,GTCCTCAC,-0.00401
4,CTCGTCTA,0.0081
5,AAGTACAC,0.126
6,ATAGGCCC,-0.302
7,AAGCAATA,0.0125
8,AACGGCTA,0.0973
9,GGCAGAAA,0.191
10,CGCTAGTC,-0.28
11,AGTTCCGC,-0.0978
12,ACGAGGAT,-0.0239
13,CTCCTTAC,0.00778
14,AGCGTCCT,-0.276
15,GTTTTTCA,0.103
16,ACATTAAC,0.0491
17,GCGGGCCC,-0.248
18,CCCTCTTC,-0.349
19,ATTCCCAA,0.0668
20,ACTGCTCA,0.159
21,GGTCCTTA,-0.0825
22,AGATTCCG,0.0555
23,GAAAACCA,0.0372
24,ATCGCATA,0.0497
25,ATGGGATA,-0.125

row,Sequence,PBM E-score
1,TGACTCAA,0.135
2,ATCCAAAT,0.171
3,GACTGTGC,-0.0662
4,CCCCTGCG,-0.328
5,CCGACCCA,-0.225
6,CGCCGGCA,-0.181
7,CAAAGGCC,-0.199
8,ACGGGCCA,-0.0404
9,GTGACAGA,0.133
10,ACTGAACG,-0.056
11,AACAGTAC,0.0118
12,CTTGAGGC,-0.195
13,ATTGTACA,0.0447
14,TTATGCAA,0.124
15,AAGTACGC,0.00352
16,ACGCTGGC,-0.207
17,CCTTTTTC,0.106
18,GTAGTTTA,0.171
19,GAATAGCA,0.0431
20,AGACAGTG,-0.048
21,AGACTTTA,-0.0284
22,GAAATCTA,0.173
23,AGCACAGA,0.0947
24,ATGTCTGG,-0.0099
25,CCTGTCGC,-0.179

row,Sequence,PBM E-score
1,AGAATTCT,0.218
2,AGGGAATG,-0.0251
3,CAAGGACG,-0.236
4,ACCTAACA,-0.0263
5,GCTGCACA,-0.165
6,ACTTGAGG,-0.226
7,GAAACGAC,0.0429
8,AAAAAAAC,0.171
9,ACCCCGTA,-0.0129
10,AGCCTCCC,-0.322
11,ATACACTA,0.119
12,ATGTGGCG,-0.0174
13,GCCCTCGC,-0.0974
14,GTGTATAA,-0.0913
15,CCCGGGCC,-0.309
16,CCGACTGA,-0.0992
17,CACACTCA,0.194
18,AATAGGGT,-0.00098
19,CCGACGCC,0.0803
20,AGATCGGA,0.0463
21,CCTGATTA,0.0379
22,AATTGTCC,-0.012
23,ACAGTACA,-0.105
24,ACACAAAG,0.0606
25,CAAGTATG,0.0553

row,Sequence,PBM E-score
1,TCGAGCGA,0.0805
2,CCGCACAC,-0.0493
3,CAAATCAA,0.239
4,CACGCTCC,-0.172
5,CAGATATA,0.2
6,CGAATCCG,-0.0422
7,ATTCGCGA,-0.0089
8,CCCCCCCG,-0.336
9,AAAAGCCT,-0.104
10,ATAGTCAT,0.0474
11,GAAGTCAA,0.119
12,AGCCTTTC,-0.0269
13,ATTCAACA,0.243
14,CCTTTAAC,0.0665
15,AATCCTTA,0.0277
16,AAACTCCC,-0.131
17,AAGATTAG,0.13
18,GCAGGCCC,-0.4
19,CTTCAACC,-0.0318
20,ATATGGAC,-0.0425
21,CCCATTCC,-0.413
22,ACCCAACG,-0.0538
23,ATCCATAC,-0.00142
24,GGGAGTAC,-0.226
25,GGGTAGAA,-0.072

row,Sequence,PBM E-score
1,ATGAAATA,0.283
2,TGAACTCA,0.11
3,GCCCTGAA,-0.00902
4,AATCGCTA,-0.0581
5,CCTAAAGC,-0.171
6,AATAGAAC,0.0675
7,CAGTTGAC,0.194
8,CCGCGCCA,0.123
9,GCGTTGAA,-0.00133
10,AGCGCCCG,-0.14
11,ACACCGTC,-0.0372
12,CTAGTAGA,0.064
13,CACGGCCC,0.182
14,CTTGGGAA,0.118
15,AACTAGAA,0.188
16,GTCAGGAC,-0.113
17,CCTAACCC,-0.411
18,ACGATGCT,-0.0564
19,ATTTTCGA,0.243
20,GATGTCCC,-0.3
21,GCCTTAGC,-0.0377
22,GTGGTCTA,-0.273
